# From the supplement of paper PMC8728848
# The list shows a part of the results.
# B1: Mg3lysM (Mycosphaerella graminicola) (protein)
# chain: APQNPPTSCSAAPQPTGTGSPGTVCGSTTFTNYTVKAGDTLGAIAKQYNSGVCDIAKVNGIDNPDYIKPDQVLSIPANCVTPDNTSCVKPVPVITNTCVLGVGSTYTVKSGDSFSAIATSFNITLASLEARNPQIPNYDLIFPGQVINTPLCPNSVCDSIGTYVIESGDIFYNLAQSNNVTVGQLESLNVNVNVTDIHPGDIIILPHNCHNITASA
# Experiments:
# Assay in all cases: glycan array binding signal (z-score within array); higher = stronger binding
# Conditions in all cases: glycan notation: IUPAC condensed, linker removed
# [1] = target: Neu5Ac(a2-3)Gal(b1-3)GlcNAc6S
# How it was run: (§1)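 The binding signal is a Z-score computed within each array. Data were drawn from 3228 arrays in the Consortium for Functional Glycomics database, restricted to those with a known protein sequence. Scores were averaged over arrays of the same protein sequence at different concentrations or buffers, and over linkers, and negative values can be taken as non-binding.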
# [2] = target: Neu5Ac(a2-3)Gal(b1-3)[Fuc(a1-4)]GlcNAc
# How it was run: as §1
# [3] = target: Neu5Ac(a2-3)Gal(b1-3)[Fuc(a1-4)]GlcNAc(b1-3)Gal(b1-3)[Fuc(a1-4)]GlcNAc
# How it was run: as §1
# [4] = target: Neu5Ac(a2-3)Gal(b1-3)[Fuc(a1-4)]GlcNAc(b1-3)Gal(b1-4)[Fuc(a1-3)]GlcNAc
# How it was run: as §1
# [5] = target: Neu5Ac(a2-3)Gal(b1-3)[GlcNAc(b1-6)]GalNAc
# How it was run: as §1
# [6] = target: Neu5Ac(a2-3)Gal(b1-3)[Neu5Ac(a2-6)]GalNAc
# How it was run: as §1
# [7] = target: Neu5Ac(a2-3)Gal(b1-3)[Neu5Ac(a2-6)]GlcNAc(b1-3)[Fuc(a1-3)[Gal(b1-4)]GlcNAc(b1-6)]Gal(b1-4)Glc
# How it was run: as §1
# [8] = target: Neu5Ac(a2-3)Gal(b1-3)]Neu5Ac(a2-3)Gal(b1-4)]GlcNAc
# How it was run: as §1
# Neu5Ac(a2-3)Gal(b1-4)Glc = target: Neu5Ac(a2-3)Gal(b1-4)Glc
# How it was run: as §1
# [9] = target: Neu5Ac(a2-3)Gal(b1-4)GlcNAc
# How it was run: as §1
# [10] = target: Neu5Ac(a2-3)Gal(b1-4)GlcNAc(b1-2)Man
# How it was run: as §1
# [11] = target: Neu5Ac(a2-3)Gal(b1-4)GlcNAc(b1-2)Man(a1-3)[GlcNAc(b1-4)][Neu5Ac(a2-3)Gal(b1-4)GlcNAc(b1-2)Man(a1-6)]Man(b1-4)GlcNAc(b1-4)GlcNAc
# How it was run: as §1
# [12] = target: Neu5Ac(a2-3)Gal(b1-4)GlcNAc(b1-2)Man(a1-3)[Neu5Ac(a2-3)Gal(b1-4)GlcNAc(b1-2)Man(a1-6)]Man(b1-4)GlcNAc(b1-4)GlcNAc
# How it was run: as §1
# [13] = target: Neu5Ac(a2-3)Gal(b1-4)GlcNAc(b1-2)Man(a1-3)[Neu5Ac(a2-3)Gal(b1-4)GlcNAc(b1-2)Man(a1-6)]Man(b1-4)GlcNAc(b1-4)[Fuc(a1-6)]GlcNAc
# How it was run: as §1
# [14] = target: Neu5Ac(a2-3)Gal(b1-4)GlcNAc(b1-2)Man(a1-3)[Neu5Ac(a2-6)Gal(b1-4)GlcNAc(b1-2)Man(a1-6)]Man(b1-4)GlcNAc(b1-4)GlcNAc
# How it was run: as §1
# [15] = target: Neu5Ac(a2-3)Gal(b1-4)GlcNAc(b1-2)[Neu5Ac(a2-3)Gal(b1-4)GlcNAc(b1-4)]Man(a1-3)[GlcNAc(b1-4)][Neu5Ac(a2-3)Gal(b1-4)GlcNAc(b1-2)[Neu5Ac(a2-3)Gal(b1-4)GlcNAc(b1-6)]Man(a1-6)]Man(b1-4)GlcNAc(b1-4)GlcNAc
# How it was run: as §1
# [16] = target: Neu5Ac(a2-3)Gal(b1-4)GlcNAc(b1-2)[Neu5Ac(a2-3)Gal(b1-4)GlcNAc(b1-4)]Man(a1-3)[GlcNAc(b1-4)][Neu5Ac(a2-3)Gal(b1-4)GlcNAc(b1-4)Man(a1-6)]Man(b1-4)GlcNAc(b1-4)GlcNAc
# How it was run: as §1
# [17] = target: Neu5Ac(a2-3)Gal(b1-4)GlcNAc(b1-2)[Neu5Ac(a2-3)Gal(b1-4)GlcNAc(b1-6)]Man(a1-6)[Neu5Ac(a2-3)Gal(b1-4)GlcNAc(b1-2)Man(a1-3)][GlcNAc(b1-4)]Man(b1-4)GlcNAc(b1-4)GlcNAc
# How it was run: as §1
# [18] = target: Neu5Ac(a2-3)Gal(b1-4)GlcNAc(b1-3)Gal
# How it was run: as §1
# [19] = target: Neu5Ac(a2-3)Gal(b1-4)GlcNAc(b1-3)Gal(b1-3)GlcNAc
# How it was run: as §1
# [20] = target: Neu5Ac(a2-3)Gal(b1-4)GlcNAc(b1-3)Gal(b1-4)GlcNAc
# How it was run: as §1
# [21] = target: Neu5Ac(a2-3)Gal(b1-4)GlcNAc(b1-3)Gal(b1-4)GlcNAc(b1-2)Man(a1-3)[Neu5Ac(a2-3)Gal(b1-4)GlcNAc(b1-3)Gal(b1-4)GlcNAc(b1-2)Man(a1-6)]Man(b1-4)GlcNAc(b1-4)GlcNAc
# How it was run: as §1
# [22] = target: Neu5Ac(a2-3)Gal(b1-4)GlcNAc(b1-3)Gal(b1-4)GlcNAc(b1-3)Gal(b1-4)GlcNAc
# How it was run: as §1
# [23] = target: Neu5Ac(a2-3)Gal(b1-4)GlcNAc(b1-3)Gal(b1-4)GlcNAc(b1-3)Gal(b1-4)GlcNAc(b1-2)Man(a1-3)[Neu5Ac(a2-3)Gal(b1-4)GlcNAc(b1-3)Gal(b1-4)GlcNAc(b1-3)Gal(b1-4)GlcNAc(b1-2)Man(a1-6)]GalNAc
# How it was run: as §1
# [24] = target: Neu5Ac(a2-3)Gal(b1-4)GlcNAc(b1-3)Gal(b1-4)GlcNAc(b1-3)GalNAc
# How it was run: as §1
# [25] = target: Neu5Ac(a2-3)Gal(b1-4)GlcNAc(b1-3)Gal(b1-4)GlcNAc(b1-3)[Neu5Ac(a2-3)Gal(b1-4)GlcNAc(b1-3)Gal(b1-4)GlcNAc(b1-6)]GalNAc
# How it was run: as §1
# [26] = target: Neu5Ac(a2-3)Gal(b1-4)GlcNAc(b1-3)Gal(b1-4)GlcNAc(b1-6)[Gal(b1-3)]GalNAc
# How it was run: as §1
# [27] = target: Neu5Ac(a2-3)Gal(b1-4)GlcNAc(b1-3)Gal(b1-4)[Fuc(a1-3)]GlcNAc
# How it was run: as §1
# [28] = target: Neu5Ac(a2-3)Gal(b1-4)GlcNAc(b1-3)GalNAc
# How it was run: as §1
# [29] = target: Neu5Ac(a2-3)Gal(b1-4)GlcNAc(b1-3)[Neu5Ac(a2-3)Gal(b1-4)GlcNAc(b1-6)]GalNAc
# How it was run: as §1
# [30] = target: Neu5Ac(a2-3)Gal(b1-4)GlcNAc(b1-6)GalNAc
# How it was run: as §1
# [31] = target: Neu5Ac(a2-3)Gal(b1-4)GlcNAc(b1-6)[Gal(b1-3)]GalNAc
# How it was run: as §1
# [32] = target: Neu5Ac(a2-3)Gal(b1-4)GlcNAc(b1-6)[Neu5Ac(a2-3)Gal(b1-3)]GalNAc
# How it was run: as §1
# [33] = target: Neu5Ac(a2-3)Gal(b1-4)GlcNAc6S
# How it was run: as §1
# [34] = target: Neu5Ac(a2-3)Gal(b1-4)[Fuc(a1-3)]GlcNAc
# How it was run: as §1
# [35] = target: Neu5Ac(a2-3)Gal(b1-4)[Fuc(a1-3)]GlcNAc(b1-2)Man
# How it was run: as §1
# [36] = target: Neu5Ac(a2-3)Gal(b1-4)[Fuc(a1-3)]GlcNAc(b1-3)Gal
# How it was run: as §1
# [37] = target: Neu5Ac(a2-3)Gal(b1-4)[Fuc(a1-3)]GlcNAc(b1-3)Gal(b1-4)GlcNAc
# How it was run: as §1
# [38] = target: Neu5Ac(a2-3)Gal(b1-4)[Fuc(a1-3)]GlcNAc(b1-3)Gal(b1-4)[Fuc(a1-3)]GlcNAc(b1-3)Gal(b1-4)[Fuc(a1-3)]GlcNAc
# How it was run: as §1
# [39] = target: Neu5Ac(a2-3)Gal(b1-4)[Fuc(a1-3)]GlcNAc(b1-3)GalNAc
# How it was run: as §1
# [40] = target: Neu5Ac(a2-3)Gal(b1-4)[Fuc(a1-3)]GlcNAc(b1-6)[Gal(b1-3)]GalNAc
# How it was run: as §1
# [41] = target: Neu5Ac(a2-3)Gal(b1-4)[Fuc(a1-3)]GlcNAc(b1-6)[Neu5Ac(a2-3)Gal(b1-3)]GalNAc
# How it was run: as §1
# [42] = target: Neu5Ac(a2-3)Gal(b1-4)[Fuc(a1-3)]GlcNAc6S
# How it was run: as §1
# [43] = target: Neu5Ac(a2-3)Gal6S(b1-4)GlcNAc
# How it was run: as §1
# [44] = target: Neu5Ac(a2-3)Gal6S(b1-4)[Fuc(a1-3)]GlcNAc
# How it was run: as §1
binder,measurement,setting,value
B1,glycan array binding signal (z-score),[1],-0.154
same,glycan array binding signal (z-score),[2],-0.121
same,glycan array binding signal (z-score),[3],-0.018
same,glycan array binding signal (z-score),[4],0.086
same,glycan array binding signal (z-score),[5],-0.183
same,glycan array binding signal (z-score),[6],-0.102
same,glycan array binding signal (z-score),[7],0.077
same,glycan array binding signal (z-score),[8],-0.041
same,glycan array binding signal (z-score),Neu5Ac(a2-3)Gal(b1-4)Glc,0.019
same,glycan array binding signal (z-score),[9],-0.097
same,glycan array binding signal (z-score),[10],-0.135
same,glycan array binding signal (z-score),[11],0.008
same,glycan array binding signal (z-score),[12],-0.02
same,glycan array binding signal (z-score),[13],-0.085
same,glycan array binding signal (z-score),[14],-0.088
same,glycan array binding signal (z-score),[15],0.036
same,glycan array binding signal (z-score),[16],-0.037
same,glycan array binding signal (z-score),[17],-0.095
same,glycan array binding signal (z-score),[18],-0.078
same,glycan array binding signal (z-score),[19],-0.035
same,glycan array binding signal (z-score),[20],-0.099
same,glycan array binding signal (z-score),[21],-0.142
same,glycan array binding signal (z-score),[22],-0.099
same,glycan array binding signal (z-score),[23],-0.06
same,glycan array binding signal (z-score),[24],-0.074
same,glycan array binding signal (z-score),[25],0.153
same,glycan array binding signal (z-score),[26],-0.077
same,glycan array binding signal (z-score),[27],-0.082
same,glycan array binding signal (z-score),[28],-0.069
same,glycan array binding signal (z-score),[29],0.02
same,glycan array binding signal (z-score),[30],-0.052
same,glycan array binding signal (z-score),[31],-0.065
same,glycan array binding signal (z-score),[32],-0.086
same,glycan array binding signal (z-score),[33],-0.041
same,glycan array binding signal (z-score),[34],-0.145
same,glycan array binding signal (z-score),[35],-0.082
same,glycan array binding signal (z-score),[36],-0.101
same,glycan array binding signal (z-score),[37],-0.053
same,glycan array binding signal (z-score),[38],-0.121
same,glycan array binding signal (z-score),[39],0.019
same,glycan array binding signal (z-score),[40],-0.035
same,glycan array binding signal (z-score),[41],-0.033
same,glycan array binding signal (z-score),[42],0.04
same,glycan array binding signal (z-score),[43],-0.017
same,glycan array binding signal (z-score),[44],-0.14
